Laboratory results from article PMC4336329 (PLoS ONE, 2015).
About 14,000 (4.5%) of roughly 310,000 compounds showed an effect of 50% or more. The effect is printed as a negative number. This is one part of the list.

Each molecule was assayed against human ether-à-go-go-related gene (hERG) potassium channel (human, UniProt Q12809) (assay: primary screen, population patch clamp on CHO cells stably expressing hERG).
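Also: peak tail current of the secondary pulse compared with the same well before compound.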

human ether-à-go-go-related gene (hERG) potassium channel, sequence (Q12809 whole entry, looked up): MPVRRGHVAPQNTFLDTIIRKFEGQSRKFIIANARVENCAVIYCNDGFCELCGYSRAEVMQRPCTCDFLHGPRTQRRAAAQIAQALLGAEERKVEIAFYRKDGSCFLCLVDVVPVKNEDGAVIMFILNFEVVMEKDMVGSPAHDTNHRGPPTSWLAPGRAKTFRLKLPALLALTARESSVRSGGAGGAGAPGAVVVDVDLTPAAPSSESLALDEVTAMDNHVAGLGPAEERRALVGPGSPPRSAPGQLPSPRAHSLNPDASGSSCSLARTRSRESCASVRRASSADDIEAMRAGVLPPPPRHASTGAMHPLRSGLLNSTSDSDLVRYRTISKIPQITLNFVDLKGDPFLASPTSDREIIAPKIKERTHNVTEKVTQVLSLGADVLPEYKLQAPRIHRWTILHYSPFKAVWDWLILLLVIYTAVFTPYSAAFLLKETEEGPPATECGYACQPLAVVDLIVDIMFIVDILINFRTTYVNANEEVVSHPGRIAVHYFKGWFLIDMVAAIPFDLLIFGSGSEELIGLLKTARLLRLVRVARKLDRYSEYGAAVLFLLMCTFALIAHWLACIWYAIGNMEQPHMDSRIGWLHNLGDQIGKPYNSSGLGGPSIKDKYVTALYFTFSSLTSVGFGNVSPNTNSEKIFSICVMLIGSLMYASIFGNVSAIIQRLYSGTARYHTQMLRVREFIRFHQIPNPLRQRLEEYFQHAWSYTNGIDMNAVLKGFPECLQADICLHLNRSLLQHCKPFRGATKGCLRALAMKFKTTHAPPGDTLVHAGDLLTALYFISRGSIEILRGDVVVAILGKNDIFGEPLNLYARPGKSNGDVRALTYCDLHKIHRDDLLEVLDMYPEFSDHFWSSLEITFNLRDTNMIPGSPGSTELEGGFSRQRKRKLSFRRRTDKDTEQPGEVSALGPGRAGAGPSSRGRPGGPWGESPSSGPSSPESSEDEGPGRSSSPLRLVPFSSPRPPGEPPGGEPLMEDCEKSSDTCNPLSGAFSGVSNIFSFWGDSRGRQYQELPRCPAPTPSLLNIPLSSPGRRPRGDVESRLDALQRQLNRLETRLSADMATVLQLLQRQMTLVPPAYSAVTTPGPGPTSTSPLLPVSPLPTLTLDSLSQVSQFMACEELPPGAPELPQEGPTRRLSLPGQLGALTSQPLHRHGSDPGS

SMILES	hERG current change (%, negative = inhibition) at 10uM [%]
O=C(N/N=C/C=C\c1ccc([N+](=O)[O-])cc1)c1cccnc1	-4.15
NS(=O)(=O)c1ccc(Nc2ccc3cc(S(=O)(=O)N4CCCCC4)ccc3n2)cc1	-30.6
CC/C(=N\NC(=O)c1c(C)nc2ccccn12)c1ccc(Cl)cc1	-18.1
Nc1c(N(Cc2ccco2)C(=O)c2ccc(Br)cc2)c(=O)[nH]c(=O)n1Cc1ccccc1	8.29
O=c1[nH]c2ccccc2n1CCC1CCCCC1	-4.37
CCN1C(=O)C(CC(=O)Nc2ccc(OC)cc2)N(Cc2ccco2)C1=S (stereo not shown)	-14
CCc1cc(C(=O)N2CCCC(C(=O)c3ccc(Oc4ccccc4)cc3)C2)n(C)n1 (stereo not shown)	-33.1
CN1C(=O)/C(=C/c2ccc(O)c([N+](=O)[O-])c2)N(C)C1=S	7.77
Cc1ccc(S(=O)(=O)N(C)C)cc1NC(=S)NNC(=O)C(N)=O	22
O=C1CCC(=O)N1CCC(c1ccc(F)cc1)c1ccco1 (stereo not shown)	4.27
O=C1N/C(=N\c2ccccn2)SC1Cc1ccccc1Cl (stereo not shown)	13.9
Cn1c(SCC2CCCCC2)nnc1-c1ccncc1	-5.78
CCN(CC(=O)NC1CCCCC1)S(=O)(=O)c1ccc(Cl)cc1	2.03
Cc1ccccc1C(=O)OCCN1CCOCC1.Cl	8.37
CC(C)C[C@H](NC(=O)CCCn1nnc2ccccc2c1=O)C(=O)O	4.62
c1ccc(NC2=NCCN2CC2CCCCC2)cc1	-4.59
O=C(NCCc1cccc(F)c1)[C@@H]1CSC2c3ccccc3C(=O)N21 (stereo partly shown)	-13.9
Cc1[nH]n(-c2cccc(Cl)c2)c(=O)c1-c1ccc(Cl)cc1	20
CCOc1cccc2sc(=NC(=O)CCS(=O)(=O)c3ccccc3)n(CC)c12	6.33
CCOC(=O)N1CCN(C(=O)c2cc3c(=O)n4ccccc4nc3s2)CC1	-0.653
C=CCOC(=O)/C(=C\c1cccc2ccccc12)NC(=O)c1ccccc1	-9.44
CC(C)c1ccc(C2C3=C(COC3=O)Nc3cc4c(cc32)OCO4)cc1 (stereo not shown)	-9.67
COc1ccc(NS(=O)(=O)c2cc(NC(=O)c3ccncc3)ccc2N2CCOCC2)cc1	4.27
CCOC(=O)c1cnn2c(N)c(C#N)cnc12	13.9
Clc1ccc(-c2cc3ccccc3[nH]2)cc1	-10.4
CCOc1cc(N2CCOCC2)c(OCC)cc1NC(=O)Cc1ccccc1OC	-5.77
Cc1cc(C(=O)COc2ccccc2C(N)=O)c(C)n1CC1CCCO1 (stereo not shown)	11.8
CS(=O)(=O)N1N=C(c2ccccc2)CC1c1ccc2nccnc2c1 (stereo not shown)	-0.803

SMILES	hERG current change (%, negative = inhibition) at 10uM [%]
COc1ccc(C)cc1NC(=O)Nc1ccccc1	2.19
CCO[C@H]1OC(C(=O)NCc2nc3ccccc3[nH]2)=C[C@@H](c2ccc(Br)cc2)[C@@H]1CCCO	-13.5
Cc1ccc(-c2nnc(N3CC(C)OC(C)C3)c3ccccc23)cc1 (stereo not shown)	-20.6
O=C(CN(Cc1ccccc1)C(=O)c1ccc2c(c1)OCCO2)NCc1ccc2c(c1)OCO2	-59
CCn1ccc2c(OCC(=O)NCCc3ccc(OC)c(OC)c3)cccc2c1=O	4.05
C[C@H](NC(=O)c1ccc(C(C)(C)C)cc1)C(=O)N1CCC2(CC1)NCCc1[nH]cnc12	21.6
Cc1nc(N2CCCCC2)c2c(C)c(C(=O)Nc3ccc4c(c3)OCCO4)sc2n1	11.6
Cc1ccc(NC(=O)C(=S)NCc2ccco2)cc1	7.1
O=C(Nc1cccc(C2OCCCO2)c1)c1cccs1	2.99
CN(C[C@H](CC1CCCCC1)N(C[C@H](Cc1ccccc1)N(CCc1ccccc1)N=O)N=O)N=O.[Na+]	10.5
CCOC(=O)C1=C(CC)Nc2ccccc2N=C1NC(=O)c1cccc(S(=O)(=O)N2CCCC2)c1	-4.34
CC(NC1CCCCC1)C(O)C12CC3CC(CC(C3)C1)C2.Cl (stereo not shown)	-16.4
O=C1c2ccccc2NC(c2ccc(F)cc2)N1Cc1ccccc1 (stereo not shown)	-9.65
O=S(=O)(c1ccc(-n2cnnn2)cc1)N1CCC(N2CCCCC2)CC1	-38.1
O=C(CN(C(=O)c1csnn1)c1cccc(F)c1)NCc1ccc2c(c1)OCO2	-7.22
CCOC(=O)/C(C#N)=C\c1cn(C)c2ccccc12	25.7
Cc1cccc(N2C(=O)NC(=O)/C(=C\c3cc(C)n(-c4sc5c(c4C#N)CCCC5)c3C)C2=O)c1C	4.35
O=C(NC1CCCCC1)c1ccc(-c2ccccc2[N+](=O)[O-])o1	-22.9
Cc1nnc(SCC(=O)Nc2nccs2)n1N	-10.7
COc1ccccc1N(C)S(=O)(=O)c1ccc(C(=O)OCC(=O)Nc2cc(C)on2)cc1	14.8
CN(C)CCCN(C(=O)c1ccc2c(c1)OCCO2)c1nc2cc3c(cc2s1)OCO3.Cl	-56
COCCNC(=O)c1ccccc1NC(=O)CSc1ccc(C)cc1	-4.29
Cc1cc(/C=C2\C(=N)N3N=C(S(C)(=O)=O)SC3=NC2=O)c(C)n1Cc1ccccc1	-2.95
Nc1cc[n+](CC(=O)c2ccccc2)cc1.[Br-]	27
O=C(CSc1nc(-c2ccccc2)ns1)NCC1CCCO1 (stereo not shown)	4.01
O=C1CC(C(=O)Nc2cccc(F)c2)n2c(nc3ccccc32)N1 (stereo not shown)	21.1
O=[N+]([O-])c1c(NCCO)cc(N2CCCCC2)c2nonc12	6.19
